# From the supplement of paper PMC8728848
# This is one part of the list.
# Key:
# Assay in all cases: glycan array binding signal (z-score within array); higher = stronger binding
# Conditions in all cases: glycan notation: IUPAC condensed, linker removed
# [1] = molecular target: Fuc(a1-2)[GalNAc(a1-3)]Gal(b1-3)GlcNAc(b1-6)GalNAc
# Summary of the method: (§1)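 Glycan array data came from 3228 arrays in the Consortium for Functional Glycomics database, and only arrays with an available protein sequence were kept. Glycan names were put into IUPAC-condensed notation, and columns mapping to the same glycan were averaged. The binding signal is a within-array Z-score, averaged across arrays of one protein sequence run at different concentrations or buffers and across linkers. A negative Z-score can be read as non-binding.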
# [2] = molecular target: Fuc(a1-2)[GalNAc(a1-3)]Gal(b1-4)Glc
# Summary of the method: as §1
# [3] = molecular target: Fuc(a1-2)[GalNAc(a1-3)]Gal(b1-4)GlcNAc
# Summary of the method: as §1
# [4] = molecular target: Fuc(a1-2)[GalNAc(a1-3)]Gal(b1-4)GlcNAc(b1-2)Man
# Summary of the method: as §1
# [5] = molecular target: Fuc(a1-2)[GalNAc(a1-3)]Gal(b1-4)GlcNAc(b1-2)Man(a1-3)[Fuc(a1-2)[GalNAc(a1-3)]Gal(b1-4)GlcNAc(b1-2)Man(a1-6)]Man(b1-4)GlcNAc(b1-4)GlcNAc
# Summary of the method: as §1
# [6] = molecular target: Fuc(a1-2)[GalNAc(a1-3)]Gal(b1-4)GlcNAc(b1-2)Man(a1-3)[Fuc(a1-2)[GalNAc(a1-3)]Gal(b1-4)GlcNAc(b1-2)Man(a1-6)]Man(b1-4)GlcNAc(b1-4)[Fuc(a1-6)]GlcNAc
# Summary of the method: as §1
# [7] = molecular target: Fuc(a1-2)[GalNAc(a1-3)]Gal(b1-4)GlcNAc(b1-3)Gal(b1-4)GlcNAc
# Summary of the method: as §1
# [8] = molecular target: Fuc(a1-2)[GalNAc(a1-3)]Gal(b1-4)GlcNAc(b1-3)Gal(b1-4)GlcNAc(b1-3)Gal(b1-4)GlcNAc
# Summary of the method: as §1
# [9] = molecular target: Fuc(a1-2)[GalNAc(a1-3)]Gal(b1-4)GlcNAc(b1-3)GalNAc
# Summary of the method: as §1
# [10] = molecular target: Fuc(a1-2)[GalNAc(a1-3)]Gal(b1-4)GlcNAc(b1-3)[Fuc(a1-2)[GalNAc(a1-3)]Gal(b1-4)GlcNAc(b1-6)]GalNAc
# Summary of the method: as §1
# [11] = molecular target: Fuc(a1-2)[GalNAc(a1-3)]Gal(b1-4)GlcNAc(b1-6)GalNAc
# Summary of the method: as §1
# [12] = molecular target: Fuc(a1-2)[GalNAc(a1-3)]Gal(b1-4)[Fuc(a1-3)]GlcNAc
# Summary of the method: as §1
# [13] = molecular target: Fuc(a1-2)[GalNAc(a1-3)]Gal(b1-4)[Fuc(a1-3)]GlcNAc(b1-3)GalNAc
# Summary of the method: as §1
# [14] = molecular target: Fuc(a1-2)[GalNAc(a1-4)]Gal(b1-4)GlcNAc
# Summary of the method: as §1
# [15] = molecular target: Fuc(a1-2)[GalNAc(b1-3)]Gal
# Summary of the method: as §1
# [16] = molecular target: Fuc(a1-3)GlcNAc
# Summary of the method: as §1
# [17] = molecular target: Fuc(a1-3)[Gal(b1-4)]Glc6S
# Summary of the method: as §1
# [18] = molecular target: Fuc(a1-3)[Gal(b1-4)]GlcNAc
# Summary of the method: as §1
# [19] = molecular target: Fuc(a1-3)[Gal(b1-4)]GlcNAc(b1-2)Man
# Summary of the method: as §1
# [20] = molecular target: Fuc(a1-3)[Gal(b1-4)]GlcNAc(b1-2)Man(a1-3)[Fuc(a1-3)[Gal(b1-4)]GlcNAc(b1-2)Man(a1-6)]Man(b1-4)GlcNAc(b1-4)GlcNAc
# Summary of the method: as §1
# [21] = molecular target: Fuc(a1-3)[Gal(b1-4)]GlcNAc(b1-2)Man(a1-3)[Fuc(a1-3)[Gal(b1-4)]GlcNAc(b1-2)Man(a1-6)]Man(b1-4)GlcNAc(b1-4)[Fuc(a1-6)]GlcNAc
# Summary of the method: as §1
# [22] = molecular target: Fuc(a1-3)[Gal(b1-4)]GlcNAc(b1-3)Gal(b1-3)[Fuc(a1-4)]GlcNAc
# Summary of the method: as §1
# [23] = molecular target: Fuc(a1-3)[Gal(b1-4)]GlcNAc(b1-3)Gal(b1-4)[Fuc(a1-3)]GlcNAc
# Summary of the method: as §1
# [24] = molecular target: Fuc(a1-3)[Gal(b1-4)]GlcNAc(b1-3)Gal(b1-4)[Fuc(a1-3)]GlcNAc(b1-3)Gal(b1-4)[Fuc(a1-3)]GlcNAc
# Summary of the method: as §1
# [25] = molecular target: Fuc(a1-3)[Gal(b1-4)]GlcNAc(b1-3)GalNAc
# Summary of the method: as §1
# [26] = molecular target: Fuc(a1-3)[Gal(b1-4)]GlcNAc(b1-6)GalNAc
# Summary of the method: as §1
# [27] = molecular target: Fuc(a1-3)[Gal(b1-4)]GlcNAc(b1-6)[Gal(b1-3)GlcNAc(b1-3)]Gal(b1-4)Glc
# Summary of the method: as §1
# [28] = molecular target: Fuc(a1-3)[Gal(b1-4)]GlcNAc6S
# Summary of the method: as §1
# [29] = molecular target: Fuc(a1-3)[Gal3S(b1-4)]Glc
# Summary of the method: as §1
# [30] = molecular target: Fuc(a1-3)[Gal3S(b1-4)]GlcNAc
# Summary of the method: as §1
# [31] = molecular target: Fuc(a1-3)[Gal3S(b1-4)]GlcNAc6S
# Summary of the method: as §1
# [32] = molecular target: Fuc(a1-3)[GalNAc(b1-4)]GlcNAc
# Summary of the method: as §1
# [33] = molecular target: Fuc(a1-3)[GalNAc(b1-4)]GlcNAc6S
# Summary of the method: as §1
# [34] = molecular target: Fuc(a1-4)GlcNAc
# Summary of the method: as §1
# [35] = molecular target: Fuc(b1-3)GlcNAc
# Summary of the method: as §1
# [36] = molecular target: Gal(a1-2)Gal
# Summary of the method: as §1
# [37] = molecular target: Gal(a1-3)Gal
# Summary of the method: as §1
# [38] = molecular target: Gal(a1-3)Gal(b1-3)GlcNAc
# Summary of the method: as §1
# [39] = molecular target: Gal(a1-3)Gal(b1-3)GlcNAc(b1-2)Man
# Summary of the method: as §1
# [40] = molecular target: Gal(a1-3)Gal(b1-3)GlcNAc(b1-2)Man(a1-3)[Gal(a1-3)Gal(b1-3)GlcNAc(b1-2)Man(a1-6)]Man(b1-4)GlcNAc(b1-4)GlcNAc
# Summary of the method: as §1
# [41] = molecular target: Gal(a1-3)Gal(b1-3)GlcNAc(b1-3)GalNAc
# Summary of the method: as §1
# [42] = molecular target: Gal(a1-3)Gal(b1-3)GlcNAc(b1-6)GalNAc
# Summary of the method: as §1
# [43] = molecular target: Gal(a1-3)Gal(b1-3)[Fuc(a1-4)]GlcNAc(b1-2)Man(a1-3)[Gal(a1-3)Gal(b1-3)[Fuc(a1-4)]GlcNAc(b1-2)Man(a1-6)]Man(b1-4)GlcNAc(b1-4)GlcNAc
# Summary of the method: as §1
# [44] = molecular target: Gal(a1-3)Gal(b1-4)Glc
# Summary of the method: as §1
# [45] = molecular target: Gal(a1-3)Gal(b1-4)GlcNAc
# Summary of the method: as §1
binder,measurement,setting,value
OGAN (protein) MVQKESQATLEERESELSSNPAASAGASLEPPAAPAPGEDNPAGAGGAAVAGAAGGARRFLCGVVEGFYGRPWVMEQRKELFRRLQKWELNTYLYAPKDDYKHRMFWREMYSVEEAEQLMTLISAAREYEIEFIYAISPGLDITFSNPKEVSTLKRKLDQVSQFGCRSFALLFNDIDHNMCAADKEVFSSFAHAQVSITNEIYQYLGEPETFLFCPTEYCGTFCYPNVSQSPYLRTVGEKLLPGIEVLWTGPKVVSKEIPVESIEEVSKIIKRAPVIWDNIHANDYDQKRLFLGPYKGRSTELIPRLKGVLTNPNCEFEANYVAIHTLATWYKSNMNGVRKDVVMTDSEDSTVSIQIKLENEGSDEDIETDVLYSPQMALKLALTEWLQEFGVPHQY,glycan array binding signal (z-score),[1],-0.047
same,glycan array binding signal (z-score),[2],-0.068
same,glycan array binding signal (z-score),[3],-0.083
same,glycan array binding signal (z-score),[4],-0.069
same,glycan array binding signal (z-score),[5],-0.027
same,glycan array binding signal (z-score),[6],-0.064
same,glycan array binding signal (z-score),[7],-0.071
same,glycan array binding signal (z-score),[8],-0.044
same,glycan array binding signal (z-score),[9],-0.027
same,glycan array binding signal (z-score),[10],-0.123
same,glycan array binding signal (z-score),[11],-0.043
same,glycan array binding signal (z-score),[12],-0.028
same,glycan array binding signal (z-score),[13],-0.035
same,glycan array binding signal (z-score),[14],-0.033
same,glycan array binding signal (z-score),[15],-0.047
same,glycan array binding signal (z-score),[16],-0.022
same,glycan array binding signal (z-score),[17],-0.046
same,glycan array binding signal (z-score),[18],-0.026
same,glycan array binding signal (z-score),[19],-0.077
same,glycan array binding signal (z-score),[20],-0.031
same,glycan array binding signal (z-score),[21],0.025
same,glycan array binding signal (z-score),[22],-0.046
same,glycan array binding signal (z-score),[23],-0.042
same,glycan array binding signal (z-score),[24],-0.08
same,glycan array binding signal (z-score),[25],-0.048
same,glycan array binding signal (z-score),[26],-0.022
same,glycan array binding signal (z-score),[27],-0.065
same,glycan array binding signal (z-score),[28],-0.052
same,glycan array binding signal (z-score),[29],-0.07
same,glycan array binding signal (z-score),[30],0.055
same,glycan array binding signal (z-score),[31],-0.076
same,glycan array binding signal (z-score),[32],-0.044
same,glycan array binding signal (z-score),[33],-0.101
same,glycan array binding signal (z-score),[34],-0.09
same,glycan array binding signal (z-score),[35],-0.064
same,glycan array binding signal (z-score),[36],-0.073
same,glycan array binding signal (z-score),[37],-0.111
same,glycan array binding signal (z-score),[38],-0.071
same,glycan array binding signal (z-score),[39],-0.026
same,glycan array binding signal (z-score),[40],-0.014
same,glycan array binding signal (z-score),[41],-0.052
same,glycan array binding signal (z-score),[42],-0.077
same,glycan array binding signal (z-score),[43],-0.035
same,glycan array binding signal (z-score),[44],-0.059
same,glycan array binding signal (z-score),[45],-0.027
